Test results from the supplement of paper PMC9174493.
The other results are listed elsewhere or left out. Single values of this set are uncertain. Values with irradiation are relative to irradiated vehicle.

Tests used:
[1] = tested on: A549-Dual; test: NF-kB reporter (SEAP) activity, viability-corrected, relative to vehicle (fold change vs vehicle); higher = more activation of STING-IRF / NF-kB immune response reporter
[2] = tested on: A549-Dual; test: ISRE reporter (Lucia luciferase) activity, viability-corrected, relative to vehicle (fold change vs vehicle); higher = more activation of STING-IRF / NF-kB immune response reporter
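Wherever NF-kB reporter (SEAP) activity, viability-corrected, relative to vehicle is given: viability correction based on the alamar blue assay, with concentrations leaving 10% survival or less dropped.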

| Structure (SMILES) | NF-kB reporter ([1]; 0.1 µM, irradiation: 8 Gy/4 fr) | NF-kB reporter ([1]; 0.1 µM, irradiation: none) | NF-kB reporter ([1]; 0.3 µM, irradiation: 8 Gy/4 fr) | NF-kB reporter ([1]; 0.3 µM, irradiation: none) | NF-kB reporter ([1]; 1 µM, irradiation: 8 Gy/4 fr) | NF-kB reporter ([1]; 1 µM, irradiation: none) | NF-kB reporter ([1]; 3 µM, irradiation: none) | NF-kB reporter ([1]; 10 µM, irradiation: none) | ISRE reporter ([2]; 0.1 µM, irradiation: 8 Gy/4 fr) | ISRE reporter ([2]; 0.1 µM, irradiation: none) | ISRE reporter ([2]; 0.3 µM, irradiation: 8 Gy/4 fr) | ISRE reporter ([2]; 0.3 µM, irradiation: none) | ISRE reporter ([2]; 1 µM, irradiation: 8 Gy/4 fr) | ISRE reporter ([2]; 1 µM, irradiation: none) | ISRE reporter ([2]; 3 µM, irradiation: none) | ISRE reporter ([2]; 10 µM, irradiation: none) | NF-kB reporter ([1]; 10 µM, irradiation: 8 Gy/4 fr) | ISRE reporter ([2]; 10 µM, irradiation: 8 Gy/4 fr) | NF-kB reporter ([1]; 3 µM, irradiation: 8 Gy/4 fr) | ISRE reporter ([2]; 3 µM, irradiation: 8 Gy/4 fr) |
| --- | --- | --- | --- | --- | --- | --- | --- | --- | --- | --- | --- | --- | --- | --- | --- | --- | --- | --- | --- | --- |
| COc1cccc2c1C(=O)c1c(O)c3c(c(O)c1C2=O)CC(O)(C(=O)CO)CC3OC1CC(N)C(OC2CCCCO2)C(C)O1 (centres undefined) [Pirarubicin] | 0.935 | 1.42 | 0.954 | 1.52 | 0.917 | 1.84 | 11.8 | 3.84 | 0.565 | 2.6 | 0.668 | 2.79 | 0.598 | 4.01 | 2.8 | 1.29 |  |  |  |  |
| CCCN1CCCCC1C(=O)Nc1c(C)cccc1C.Cl (centres undefined) [Ropivacaine HCl] |  |  |  |  |  |  |  | 1.06 |  |  |  |  |  |  |  | 0.854 | 0.938 | 1.09 |  |  |
| COC1/C=C/OC2(C)Oc3c(C)c(O)c4c(O)c(c(/C=N/N5CCN(C6CCCC6)CC5)c(O)c4c3C2=O)NC(=O)/C(C)=C/C=C/C(C)C(O)C(C)C(O)C(C)C(OC(C)=O)C1C (stereo in doubt) [Rifapentine] |  |  |  |  |  |  |  | 0.947 |  |  |  |  |  |  |  | 1.1 | 0.559 | 0.558 |  |  |
| CN(C)CCCN1c2ccccc2CCc2ccc(Cl)cc21.Cl [Clomipramine HCl] |  |  |  |  |  |  |  | 0.858 |  |  |  |  |  |  |  | 1 | 0.619 | 0.617 |  |  |
| CC1=C(C)C(=O)C(C(CCCCCC(=O)O)c2ccccc2)=C(C)C1=O (centres undefined) [Seratrodast(AA-2414, ABT-001)] | 1.35 | 2.61 | 1.38 | 2.11 | 1.59 | 1.42 | 1.48 | 1.27 | 1.13 | 2.45 | 1.23 | 1.99 | 1.49 | 1.19 | 1.42 | 1.13 | 2.18 | 2.22 | 2.23 | 1.15 |
| COc1cccc2c1C(=O)c1c(O)c3c(c(O)c1C2=O)CC(O)(C(=O)CO)CC3OC1CC(N)C(O)C(C)O1.Cl (centres undefined) [Epirubicin HCl] | 0.81 | 1.69 | 1.32 | 2.46 | 1.64 | 7.45 | 7.26 | 1.47 | 0.446 | 3.39 | 0.965 | 5.82 | 0.907 | 4.02 | 2.04 | 0.758 | 4.16 | 0.567 |  |  |
| C=CCOc1ccccc1OCC(O)CNC(C)C.Cl (centres undefined) [Oxprenolol HCl] |  |  |  |  |  |  |  | 0.93 |  |  |  |  |  |  |  | 0.952 | 0.972 | 0.931 |  |  |
| CCCCCCCCCCCCCCCCCCOC(=O)CCCCCCCCCCCCCCC [Lanolin] |  |  |  |  |  |  |  | 0.653 |  |  |  |  |  |  |  | 0.487 | 0.911 | 0.961 |  |  |
| CC(=O)Oc1cc2c(s1)CCN(C(C(=O)C1CC1)c1ccccc1F)C2 (centres undefined) [Prasugrel] |  |  |  |  |  |  |  | 2.93 |  |  |  |  |  |  |  | 0.918 | 1.75 | 0.297 |  |  |
| Cc1nc(NC(=O)N2CCCC2C(N)=O)sc1-c1ccnc(C(C)(C)C(F)(F)F)c1 (centres undefined) [Alpelisib (BYL719)] | 1.16 | 1.2 | 0.896 | 1.33 | 0.842 | 1.6 | 1.22 | 0.808 | 0.988 | 1.24 | 0.862 | 1.04 | 0.863 | 0.991 | 0.616 | 0.521 | 0.665 | 0.482 | 0.854 | 0.522 |
| CCCCCOc1ccc(-c2ccc(-c3ccc(C(=O)NC4CC(O)C(O)NC(=O)C5C(O)C(C)CN5C(=O)C(C(C)O)NC(=O)C(C(O)C(O)c5ccc(O)cc5)NC(=O)C5CC(O)CN5C(=O)C(C(C)O)NC4=O)cc3)cc2)cc1 (centres undefined) |  |  |  |  |  |  |  | 1.41 |  |  |  |  |  |  |  | 1.5 | 0.925 | 0.9 |  |  |
| C[n+]1cc2c3c(ccc2c2ccc4cc5c(cc4c21)OCO5)OCO3 [Sanguinarine] | 1.07 | 1.36 | 1.03 | 1.17 | 1.23 | 0.997 | 1.57 |  | 0.866 | 0.971 | 0.885 | 0.815 | 0.879 | 0.834 | 1.27 |  |  |  | 0.97 | 0.809 |
| CCC1(O)C(=O)OCc2c1cc1n(c2=O)Cc2cc3c(CN(C)C)c(O)ccc3nc2-1 (centres undefined) [Topotecan] | 1.17 | 1.63 | 1.36 | 2.79 | 1.48 | 3.85 | 4.2 | 3.31 | 1.3 | 7.28 | 1.9 | 8 | 1.49 | 10.8 | 11.1 | 9.6 | 2.71 | 1.55 |  |  |
| CCCCCCCCc1ccc(CCC(N)(CO)CO)cc1 [Fingolimod] | 0.687 | 0.48 | 0.745 | 0.467 | 0.659 | 0.633 | 0.716 |  | 0.613 | 0.546 | 0.616 | 0.6 | 0.608 | 0.763 | 0.706 |  |  |  | 0.796 | 0.832 |
| CC1CC2C3CCC4=CC(=O)C=CC4(C)C3(F)C(O)CC2(C)C1C(=O)CO (centres undefined) [Desoximetasone] | 0.567 | 0.71 | 0.878 | 0.67 | 0.928 | 0.681 | 0.672 | 0.964 | 0.0545 | 0.202 | 0.0696 | 0.243 | 0.0407 | 0.196 | 0.205 | 0.236 | 0.718 | 0.0455 | 0.959 | 0.0635 |
| NC(=O)c1ncn(C2OC(CO)C(O)C2O)c1O (centres undefined) [Mizoribine] | 1.28 | 1.23 | 1.3 | 1.1 | 1.29 | 0.922 | 1.02 | 0.906 | 1.18 | 1.36 | 1.21 | 1.04 | 1.19 | 0.994 | 0.997 | 0.82 | 0.794 | 0.683 | 1.06 | 1.14 |
| CC(C)[C@H](N)C(=O)O [L-Valine] |  |  |  |  |  |  |  | 0.775 |  |  |  |  |  |  |  | 0.673 | 1.15 | 1.1 |  |  |
| CCOc1ccc2nc(S(N)(=O)=O)sc2c1 [Ethoxzolamide] |  |  |  |  |  |  |  | 0.823 |  |  |  |  |  |  |  | 0.789 | 1.63 | 1.34 |  |  |
| CC1=C(C(=O)OCCN(Cc2ccccc2)c2ccccc2)C(c2cccc([N+](=O)[O-])c2)C(P2(=O)OCC(C)(C)CO2)=C(C)N1 (centres undefined) [Efonidipine] |  |  |  |  |  |  |  | 0.896 |  |  |  |  |  |  |  | 1.14 | 0.685 | 0.776 |  |  |
| Cc1onc(-c2ccccc2)c1-c1ccc(S(N)(=O)=O)cc1 [Valdecoxib] |  |  |  |  |  |  |  | 0.961 |  |  |  |  |  |  |  | 0.739 | 0.835 | 0.777 |  |  |
| O=C(/C=C/c1cccc(S(=O)(=O)Nc2ccccc2)c1)NO [Belinostat (PXD101)] | 0.905 | 1.15 | 0.735 | 1.16 | 0.522 | 1.22 | 3.17 | 5 | 1.09 | 1.51 | 0.602 | 1.44 | 0.111 | 0.53 | 0.881 | 1.48 |  |  |  |  |
| C/C=C(/C)C(=O)OC1C(OC(C)=O)C2(CO)C(O)CC3(C)C(=CCC4C5(C)CCC(OC6OC(C(=O)O)C(OC7OC(CO)C(O)C(O)C7O)C(O)C6OC6OC(CO)C(O)C(O)C6O)C(C)(CO)C5CCC43C)C2CC1(C)C (centres undefined) [Escin] | 1.05 | 1.15 | 1.13 | 0.775 | 1.17 | 0.984 | 0.818 |  | 1.1 | 0.846 | 0.964 | 0.732 | 0.707 | 0.664 | 0.916 |  |  |  | 1.13 | 0.79 |
| COc1c2ccoc2cc2oc(=O)ccc12 [Bergapten] | 1.26 | 1.32 | 1.11 | 0.99 | 1.36 | 1.1 | 1.03 | 1.26 | 1.26 | 0.933 | 1.03 | 0.968 | 0.89 | 0.829 | 0.968 | 0.791 | 1.09 | 0.899 | 1.24 | 0.846 |
| COc1cc2nccc(Oc3ccc(NC(=O)NC4CC4)c(Cl)c3)c2cc1C(N)=O.CS(=O)(=O)O [lenvatinib Mesylate] | 1.01 | 1.09 | 0.901 | 0.955 | 1.01 | 1.26 | 1.01 | 1.01 | 0.962 | 0.873 | 0.832 | 0.883 | 0.979 | 0.774 | 0.361 | 0.596 | 0.783 | 0.645 | 0.852 | 0.712 |
| COc1cc(Nc2ncc(F)c(Nc3ccc4c(n3)N(COP(=O)(O)O)C(=O)C(C)(C)O4)n2)cc(OC)c1OC [Fostamatinib (R788)] | 0.969 | 1.1 | 1.05 | 1.21 | 1.5 | 1.01 |  |  | 0.606 | 1.13 | 0.802 | 0.404 | 0.05 | 0.207 |  |  |  |  | 1.32 | 0.0813 |
